# Data published in the supplement of paper PMC11417369.
# The list shows a part of the results.
# System: PfSIP2 AP2 domain 1 (GST-tagged)
# Assay: gcPBM binding intensity (ln(normalized median fluorescence intensity)); higher = stronger DNA binding
# Method in brief: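 GST-fused DNA-binding domains of P. falciparum, expressed in E. coli, were applied at about 25 μg on average for 1 h to an Agilent 4 × 180k array of primer-extended double-stranded 36-bp intergenic genomic probes and negative controls. Binding intensity is the highest Masliner-normalised natural-log median intensity across replicate spots of either probe orientation, measured with Alexa488 anti-GST antibody and a 488 nm scan.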
row,Sequence,gcPBM binding intensity (ln)
1,GATGATTCAATTTATGCACACTAAAAATTAATTATA [CACACA_site4308],8.82
2,CCATAGATATTTTATACACACATATAATATATTAAT [CACACA_site373],7.17
3,ACCAAAAGGGGATGTAGTACAATATGATTAGAAGAA [XGTACX_site3773],7
4,AAATAATATATTCCTTGTACTTATTTCAATGAATTC [XGTACX_site7719],6.83
5,ATAATCTGACAAATGTGTACACATATATATATATAT [XGTACX_site2379],9.71
6,TAACTTCAAACAAAATATGGTAAAAGTGGTTGAAAA [CACACA_negctrl_site42],7.03
7,AAAATACCCGGACACACACACATATATATATATATT [CACACA_site6137],7.2
8,GATATGATTAACTTATGTTATTCTTGATGGTTTCTT [GTGCAC_negctrl_site411],6.59
9,TAATAAGGTTACAACAAACACACAAAGGAATATACA [CACACA_site4089],7.07
10,TAATTTGTTAAAGGTTCACATATGGTATATACTTCT [XGTACX_negctrl_site292],6.8
11,TATCACAAAATATACTGTACATACAGGCAGTAATAT [XGTACX_site2487],7.02
12,TTATAAAACCATGTCATCAACATAGGCACAAAAATG [CACACA_negctrl_site1160],7.1
13,AAGAATCACCAAATATGTACACACCTTAACATGTTT [XGTACX_site4272],7.24
14,CCACTGTATGAATGCACACATTCATAGAATTGCTAT [CACACA_site2676],7.11
15,TTATTTTACTTTTATGCAACTAAAAATATTGCTATA [XGTACX_negctrl_site277],7.06
16,AATAAAATTTGCGATGCACACAGAATAGCTAATATG [CACACA_site8983],7.16
17,CATATAGATTTGTTCACACACACACTAAAAAAAAAA [CACACA_site7212],7.11
18,ATATTCAATTCATACACACACAATTTAAGAATGATA [CACACA_site3883],7
19,ACAAATGTGAGAAAGACACACATATAATAAAAAACA [CACACA_site1156],6.89

row,Sequence,gcPBM binding intensity (ln)
1,TATATTTAATTATTTTGTACTCATATAAAGATGATG [XGTACX_site5488],6.91
2,AAAAAAAAAATATTTGAACACACGAGGATATATAAA [CACACA_site139],6.89
3,CACACGCACGAACACACACACACACGCACGCACATA [CACACA_site6305],7.62
4,TACAGACATACATACACACATACATACAGACATACA [CACACA_site1941],7.17
5,TACATATTTACTATCACACACACGATATAAATAAAT [CACACA_site6701],7.11
6,ATGAATAAAAAAGGTGGTACATATATATATATATAT [XGTACX_site7893],8.87
7,ATACATATATAATTATGTACGTATATTTTATATAAC [XGTACX_site4292],7.41
8,AAAATAATATAAATAATATAAGTGAGCATATATATA [TGCATGCA_negctrl_site527],7.32
9,TGTCTTGTAAATTATTGTACTATTTAAAGTATAAAA [XGTACX_site7863],7.07
10,TGTAGTCTGGAGAAAAGTACATAGTATCTGGTAACA [XGTACX_site4940],6.86
11,TTTTAATTTTAAAAATGTACTTTTATTATTTTTAAT [XGTACX_site8300],6.71
12,AAATAGTTAAAAAGGCGTACACATAAATAAATAAAT [XGTACX_site2096],7.59
13,TATTATATGTAGTTGAGTACATATAAATACATATAT [XGTACX_site7933],7.14
14,AATCTAATATAATGCACACATAAAAAAAAATCAAAC [CACACA_site3633],7.89
15,GTATATATATATATATATATAATAGTAACTTTTACT [CACACA_negctrl_site608],7.81
16,CATATATACCTATATACACACATATAGATTTATATA [CACACA_site6451],7.01
17,TTATTCTACATATATGCATGTGTATGATCTGTTTAT [TGCATGCA_site782],7.04
18,ATATAAATGATATGTACACACATTTATATATATAAA [CACACA_site3475],7.04
19,AAAATAAAAAAAATGTAAAAGGTTAAAGTGAAATAT [CACACA_negctrl_site350],7.16

row,Sequence,gcPBM binding intensity (ln)
1,TGATATTATCTCTTCACACACTCACATACAGACAAA [CACACA_site1246],7.13
2,TAAAAATTAAAATGTTGTACAATGATAAAATATTAT [XGTACX_site7874],7.27
3,ATTTATTTATATACAAGTACATAAAAAATTAACTTA [XGTACX_site6170],6.7
4,TATTTGATAAAAAAAAGTACTAGAATTTCGCTTTTG [XGTACX_site7754],6.83
5,CTCAACATATACGTAACACACATATAAATATAAATA [CACACA_site7749],7.29
6,TAAATTGAAATATATTGTACATTATCAACTAAGGGA [XGTACX_site1635],7
7,AAATTATAAAATAACTGTACCAATCCTTTTTTTTTA [XGTACX_site2229],6.68
8,ATATTTAAAAAAGAGTGTACTCATCTCTTTTAAAAA [XGTACX_site1160],6.7
9,ATGTTGCTCATATGAGTGCACGTTTCATTTCAGTTT [GTGCAC_site9865],9.44
10,AATGTAGGTTTATTTACACACAAATATAGATATATA [CACACA_site6825],6.87
11,GTGTATTTATGTTATACACACAAAAATATTTTGTAT [CACACA_site4305],7.23
12,CTATTTCGTATATATAGTACATATTATAACATACTA [XGTACX_site978],7.35
13,AATTTATATAATTTTGTGCACAATATTCATGTATAT,8.93
14,ACAAAATAAAAACACACACACAAACACAAAAAAATA [CACACA_site3390],7.13
15,AGCTCTTGTCATTTTGCACACACACCGGTATAGGTT [CACACA_site5654],7
16,AGAAGGTAAAAACACACACACACATACAAAAAAAAA [CACACA_site3767],7.01
17,TATATATACAGACACATACACACAAATAAAAAAACA [CACACA_site3413],7.22
18,CCTCCATTAGATACTTGTACATAAAAGTTTTGATTG [XGTACX_site7428],7.06
